# ChEMBL document CHEMBL4888484, “Replenishing the malaria drug discovery pipeline: Screening and hit evaluation of the MMV Hit Generation Library 1 (HGL1) against asexual blood stage Plasmodium falciparum ,using a nano luciferase reporter read-out” (2022)
# The whole screen tested about 150,000 compounds, of which about 540 (0.36%) showed an effect of 50% or more. The list shows a part of the results.
# Test system: Plasmodium falciparum
# Assay: Primary screen in NF54 nanoGlo assay, in single point, at 2uM, 72h; a lower Z score goes with more inhibition
# Type: functional, Erythrocyte
# Conditions: timepoint 72 hour
SMILES,% Inhibition [%],Z score
O=C(C[C@H]1CCS(=O)(=O)C1)NOCc1ccccc1,-8,1.03
CC1(c2ccccc2)COC2(OC1)C(=O)N(CN1CCN(Cc3ccccc3)CC1)c1ccccc12 (stereo not drawn),3,-0.4
Cc1nc(N(C)C2CCCCC2)ncc1[C@H](C)NC(=O)c1ccoc1,-16,1.99
COc1cccc(CNC(=O)CCc2c(OC)nc3c(c(C)nn3-c3cccc(F)c3)c2C)c1,-5,0.74
CC[C@H](C)N(CCO)c1ncnc2ccsc12,-6,0.6
COc1ccc(-c2cc3c(=O)n(CC(=O)N4CCN(C)CC4)ncn3n2)cc1,6,-0.81
CC1CCCC(OCC(=O)Nc2ccnc(N(C)C)n2)C1 (stereo not drawn),-2,0.28
Oc1cccc(CNc2cccc3cccnc23)c1,27,-3.62
CC(=O)N[C@H]1CN(C(=O)Nc2ccc(C)cc2)C[C@@H]1c1ccc(C)cc1,-16,1.5
O=C(O)Cn1nccc1[C@H]1CCCN(C/C=C/c2ccc(F)cc2)C1,-7,1.38
CC1=C(C(=O)N2CCC[C@H]2c2nc3ccccc3s2)CCCO1,3,-0.37
Cc1nc2ccccc2n1[C@H]1CCN(C(=O)c2ccoc2)C1,-11,1.51
O=S(=O)(Cc1ccc(Cl)cc1)N1CC(Oc2cccnc2)C1,-2,0.25
CC1CCN(C(=O)c2cc(S(=O)(=O)N3CCC[C@H](C(=O)NC4CCCC4)C3)c[nH]2)CC1,-11,1.09
CCc1ccc(CN2CCc3[nH]cnc3[C@@H]2c2cccn2-c2ncccn2)o1,-1,0.27
O=C(Nc1nncs1)N1CCC[C@H]1c1ccc2c(c1)OCCO2,-6,0.76
C[C@@]1(C(=O)O)CCCN1Cc1cc(-c2ccccc2)on1,1,-0.22
COc1cccc([C@H](CN2CCN(C(=O)c3ccc(OC)c(F)c3)CC2)OCc2cccc(Cl)c2)c1,-8,1.25
O=C1c2ccccc2N[C@H](c2ccsc2)N1CCc1ccccc1,-2,0.44
CC(=O)N1c2ncnn2C(c2ccc(C)cc2)CC1c1ccc(Cl)cc1 (stereo not drawn),-9,1.19
CC(C)c1cc(C(=O)N2CCN(C)[C@]3(CCC(=O)N(CC4CC4)CC3)C2)no1,-9,1.16

SMILES,% Inhibition [%],Z score
Cc1ccccc1Cn1nnc2cc(C(=O)N3CCC(Cc4ccccc4)CC3)ccc21,9,-0.9
O=C(O)[C@H]1CCCN(c2ncnc3ccsc23)C1,2,-0.42
Cc1noc(C)c1C(C)NC(=O)C(C1CC1)N1CCCC1 (stereo not drawn),12,-1.08
COc1ccccc1N1CCN(C(=O)C(=O)N2CCN(c3ccccc3OC)CC2)CC1,-5,0.66
NC(=O)c1ccccc1NC(=O)CNCc1cccnc1,-11,1.26
Nc1nc(N2CCC[C@H](CNC(=O)Cc3cccs3)C2)cc2nncn12,-5,0.66
Cc1ccc(Cl)cc1NC(=O)Cn1ccc(C(=O)Nc2cc(Cl)ccc2C)n1,34,-3.84
C[C@@H](C(=O)NCc1cc2n(n1)CCN(C1CCCCC1)C2)n1cncn1,-1,0.12
C=CCN1C(=O)C2(CCCCC2)NC12CCN(c1ccccn1)CC2,6,-0.82
CN(CCc1ccccc1)C1(C(=O)N2CCCOCC2)Cc2ccccc2C1,10,-1.63
Cc1nnc([C@H](C)S(=O)(=O)c2ccc(C)c(C)c2)s1,2,-0.4
Cn1c(C2CCOC2)nnc1N1CCC2(CCOC2)C1 (stereo not drawn),-1,0.25
O=C(c1cccc(-n2cnnn2)c1)N1CCN(C(=O)c2cc3n(n2)CCCC3)CC1,-3,0.47
Cc1cc(C)cc(NC(=O)[C@H](C)NS(=O)(=O)c2ccc3c(c2)CCN3C(=O)N2CCCC2)c1,-7,1.42
CCc1nnc(CNC(=O)Nc2cc3c(cc2OC)OCO3)s1,-7,1.11
CC(C)C(C(=O)N(C)CC1CCCO1)N1CCCC1 (stereo not drawn),-13,1.76
Cc1ccc(NC(=O)N2CC3(CC[C@H](CN4CCCC4)O3)C2)cc1C,7,-1.08
CS(=O)(=O)C[C@H]1CCCN(c2nc(C3CCCCC3)ns2)C1,-7,0.93
Cc1ccsc1C(Cc1ccccc1)NC(=O)N1CCC(C)(O)C1 (stereo not drawn),-9,1.67
O=C(NCC1CC1)c1nn(-c2ccccc2)c(=O)c2ccccc12,-12,1.69
CCCCc1ccc(C(=O)Nc2c(C)cnn2[C@@H](C)C2CC2)nc1,-14,2

SMILES,% Inhibition [%],Z score
CCc1c(C)nc(C)nc1N1CCC2(CC1)CC(=O)N(CC=C(C)C)C2,-11,1.04
O=C(N1C[C@H]2CC[C@H]1C2)C1(Oc2ccc3ncccc3c2)CCNCC1,-18,2.58
CCN(CC)C(=O)NCc1nc2ccc(Br)cc2o1,3,-0.35
NC(=O)Nc1ccc(Cl)c(Cl)c1,-10,1.1
Cc1ccncc1CC(=O)Nc1ccccc1C(=O)N1CCC(C(N)=O)CC1,0,0.05
CO[C@@H](CNC(=O)N1CC(C)(C)OC(C)(C)C1)c1ccc(F)cc1,-1,0.12
CCS(=O)(=O)CC(C)NC(=O)N1CC(C)CCCC1C (stereo not drawn),27,-3.06
CCC(=O)c1cc(Cl)ccc1OS(=O)(=O)c1ccc2c(c1)CCC(=O)N2,-16,2.29
COC[C@@H](O)CN1CC(Oc2ccc(C#N)cc2)C1,-28,3.27
COc1cc(C(=O)NCC(=O)Nc2cccc(N3CCCC3=O)c2)ccc1OC(F)F,-5,1.02
CN(CCc1ccccn1)c1cc(C2CC(N)C2)nc(C2CC2)n1 (stereo not drawn),13,-1.71
O=C(O)c1ccc(CN2CC[C@H](O)[C@@H](C3CCCC3)C2)c(Br)c1,1,-0.11
Cc1ncc(N2CC(C)(C)[C@@](C)(O)C2)nc1C,-1,0.15
Brc1cccc2c1CN(Cc1noc(C3CC3)n1)CC2,-1,0.14
CCn1ccc(C(=O)N(CC2CCC2)C[C@H]2CCCO2)cc1=O,-2,0.37
CCN(C(=O)Nc1cc(NC(=O)COC)ccc1C)[C@H]1CCOC(C)(C)C1,-2,0.3
c1ccc2[nH]c(C3CCC(Cn4cc(-c5cncnc5)nn4)CC3)nc2c1 (stereo not drawn),-8,1.05
O=C(O)c1ccnc(C(=O)N2CCC[C@H]2c2cccs2)c1,7,-0.69
O=C(CN1CCOCC1)N1CCN(Cc2cnns2)CC1,-13,1.8
Cc1cc(C(=O)N[C@H]2C[C@H](O)C2)ns1,-16,2.18
Cc1nc(C)c(C(=O)NC[C@@]23CCCC=C2N(Cc2ccccc2)C(=O)CC3)s1,-11,1.63

SMILES,% Inhibition [%],Z score
C[C@@H](O)CNCC1=Cc2cc(Cl)cc(Cl)c2OC1,-15,2.2
O=C(NC[C@@]12CCC=C1N(CC1CC1)C(=O)CC2)c1ccccn1,-12,1.71
CCOC(=O)N1CCC(Nc2nc(N(C)C)nc(C)c2C)CC1,-9,1.69
C=CCNC(=O)NC(=O)[C@H](C)Nc1cnn(C(C)(C)C)c1,-12,2.1
O=C(c1ccc(Cl)cc1NS(=O)(=O)c1ccoc1)N1CCCCC1,5,-0.68
CC(C)(C)c1ccncc1CNC(=O)c1ncoc1C1CC1,-2,0.31
CN1C(=O)[C@@H]2CCCCN2c2ccc(C(=O)NCCN3CCN(c4ccccc4F)CC3)cc21,34,-0.64
CCc1ccc(C(=O)N2CCCN(c3nc(Cc4ccc(C)cc4)nc4c3c(C)nn4-c3ccc(F)cc3)CC2)cc1,1,-0.16
CC[C@H](C)C(=O)Nc1ccc(N2CCNC(=O)C2)nc1,-6,0.68
CCc1ccc(NCc2cnc([C@@H]3CCCO3)s2)cc1S(N)(=O)=O,-10,1.59
CCc1cc(NC(=O)[C@@H]2CCN(c3cc(F)cc(F)c3)C2=O)n(C)n1,-1,0.13
CN(C)CCCCOc1cccc(Cl)c1,-13,1.77
O=C(O)CCC1CCCN(C(=O)C2CCN(c3cc(F)cc(F)c3)C2=O)C1 (stereo not drawn),-12,1.69
COc1cc(F)c(F)cc1NC(=O)CO,-1,0.11
CCC(C)C(Nc1ncccn1)C(N)=O (stereo not drawn),-8,0.99
Cc1cc(C)c2[nH]c(C(=O)N(C)C[C@H]3CCCCO3)c(C)c2c1,-11,1.83
CC(C)(C)CC(=O)NCCc1cccs1,-3,0.42
COc1ccccc1-c1n[nH]cc1CN1C[C@@H]2CCN(S(C)(=O)=O)C[C@]2(CF)C1,-9,1.78
Cc1c[nH]c(CN2CC(C)(C)[C@@](C)(O)C2)c(C)c1=O,-17,2.89
CCN(C(=O)Cn1c(=O)n(Cc2ccccc2F)c(=O)c2sccc21)c1cccc(C)c1,-5,0.64
Cc1cc(C)n(CCNS(=O)(=O)c2ccc(N3CCCCS3(=O)=O)cc2)n1,-3,0.4
